# Results: article PMC4242493
# The list shows a part of the results. The list includes weakly bound sequences.
# Biological target: MaxL homodimer (UniProt P61244)
# Assay: universal protein-binding microarray (PBM)
# Conditions: PBS-based mixture, 10 nM His-tagged protein dimer, 2% milk, 200 ng/uL BSA, 50 ng/uL salmon testes DNA, 0.02% TX-100; detection with Alexa 488 anti-His …; high values mean tight binding; most listed sequences are background and not binding sites; double strand, one strand shown
# Sequence of UniProt P61244 (P61244 whole entry): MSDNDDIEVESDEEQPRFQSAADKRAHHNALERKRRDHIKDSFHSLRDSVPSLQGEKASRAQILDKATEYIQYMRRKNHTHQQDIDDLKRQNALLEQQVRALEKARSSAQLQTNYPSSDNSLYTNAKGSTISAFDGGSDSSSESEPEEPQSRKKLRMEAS
row,Sequence,binding signal (normalized occupancy)
1,ATACTGTC,0.0768
2,ATCGGATG,0.0777
3,CGTGCACG,0.123
4,CACGACTC,0.0772
5,ATTCATAC,0.0848
6,ACCGCGAA,0.069
7,CTTGTTTC,0.077
8,AAGTGGCG,0.0736
9,AGAGGTCC,0.07
10,AAAAAGCT,0.0692
11,GTAACGGA,0.0708
12,GGGTCCAA,0.0742
13,CAATCAGA,0.0781
14,AGGACGGC,0.0716
15,ACGTAATG,0.0857
16,CCGGGATA,0.0729
17,AAACGGAG,0.0738
18,GCGACAGC,0.0756
19,CAGATAGA,0.0777
20,CTCCGCTC,0.0698
21,ACAATCGG,0.0707
22,GACCCTGA,0.0699
23,ACATACCC,0.0816
24,GGGGCAAC,0.0732
25,ATTACATC,0.0836

row,Sequence,binding signal (normalized occupancy)
1,CTAACCCA,0.0788
2,GGAGAAAA,0.0724
3,ATTTAGCC,0.0757
4,AGAGGACG,0.066
5,AAGCACAC,0.0823
6,AAAGTGGG,0.0758
7,ATGATCGA,0.0845
8,ATTCAAAT,0.0758
9,CCTGGTTA,0.078
10,CTCCGACA,0.0693
11,GACAAACA,0.0813
12,CGACAATA,0.078
13,GGGCCGAA,0.0706
14,CGTTCAGA,0.0735
15,CGTAGAAC,0.0696
16,CACAACCG,0.0757
17,CAAAAGCA,0.0766
18,CCATAGAA,0.0789
19,GAGCACAC,0.0956
20,AGTTATAT,0.0794
21,ATGGGCAC,0.08
22,ATAGTCTA,0.0774
23,ATGGATGA,0.0855
24,TGTCGCAA,0.0714
25,CTCCGCGA,0.0675

row,Sequence,binding signal (normalized occupancy)
1,TAGAAACA,0.0813
2,AACGGGGT,0.0733
3,CGGCGGGA,0.0669
4,CGGCCCAA,0.0719
5,AAACTAAG,0.0736
6,GTGGCATA,0.0887
7,CAGGAGAG,0.0757
8,CAGAGGAG,0.0699
9,AATGGGAT,0.076
10,AGCATGGG,0.106
11,CAAATATA,0.0797
12,ATCCTTCG,0.0692
13,GGTATGGA,0.0828
14,TCTAAACA,0.0842
15,ACAGATGA,0.0804
16,CGTATCAA,0.0778
17,GTCTCAAA,0.0765
18,CGTTTCTC,0.072
19,CGTCGAGC,0.068
20,AGTAGCAA,0.0734
21,AAGGCTAG,0.077
22,GGATTTAC,0.075
23,ACCACCAC,0.0897
24,CAATCCCC,0.08
25,CCATCCAC,0.0857

row,Sequence,binding signal (normalized occupancy)
1,AACATATT,0.0801
2,CGCTAGAC,0.069
3,TCGCCCCA,0.0771
4,ACCTACGT,0.0778
5,AAGCCCAC,0.0761
6,GGTCTGAA,0.0729
7,AGCCCGAG,0.066
8,AGTACTAC,0.0779
9,ACTGGCAG,0.0695
10,ATACTATA,0.0829
11,GCAGCGTA,0.0733
12,AAAAGGAG,0.0701
13,AGCAAGAC,0.0801
14,GCGCAAAC,0.0713
15,GGGGAGCA,0.083
16,ATTGTTGC,0.0736
17,ATCGTTAC,0.078
18,AACCTTGG,0.0741
19,CTCCAGCA,0.0773
20,CATCAATC,0.0848
21,CGGGAACC,0.066
22,GGCGTTGA,0.0756
23,ATATGCCC,0.0833
24,CGCGAGTA,0.0769
25,ATGATCAC,0.0825

row,Sequence,binding signal (normalized occupancy)
1,ACACTGTC,0.0754
2,GGCTCGCA,0.0734
3,ACCAGAAT,0.0756
4,GCTACACC,0.0779
5,AAAAGGGT,0.0749
6,AAGTTGCG,0.0716
7,GGACCAAA,0.0678
8,AGCTGTCA,0.0743
9,ACATAACT,0.0846
10,CAGCAATA,0.074
11,ACGGAGGA,0.0782
12,ATCTTGCC,0.0712
13,CACAAGAG,0.0792
14,ATTTATTA,0.0778
15,GTTGATAA,0.0805
16,CATGAGAA,0.0833
17,CGAGCGCC,0.0651
18,CCTGTTAA,0.0803
19,AACCGGAG,0.0646
20,CGCTCGTC,0.0684
21,ACAGACAC,0.0793
22,AGTAAATC,0.076
23,ACGATAAT,0.0798
24,ATTCGATA,0.0815
25,ACTACGTA,0.0755

row,Sequence,binding signal (normalized occupancy)
1,ATCACAGA,0.0733
2,TCGGGCCA,0.0677
3,ACCTCTAA,0.0727
4,CGACCACG,0.0907
5,CAGAGCAC,0.0798
6,TACGCAAA,0.072
7,GCCCCATA,0.084
8,CGTCCCAA,0.0723
9,ATGCTCCC,0.0866
10,CTCTGACA,0.0732
11,GGTCTACA,0.0766
12,GAGGGCAA,0.0765
13,CGCTCCCC,0.0697
14,TATATTCA,0.0819
15,AGTTTTAC,0.0697
16,AAGCTTTC,0.0677
17,AACGGAGT,0.0667
18,CAACGATA,0.0751
19,AGCTTAGA,0.0747
20,AGGGGAGA,0.0776
21,AGATCTTC,0.075
22,CATGCGTC,0.113
23,AGTCTCGC,0.0733
24,GGAATCCA,0.0798
25,AGTTGCAC,0.0721

row,Sequence,binding signal (normalized occupancy)
1,CGTGATTC,0.091
2,CGTAGGCA,0.0743
3,CGCCTATC,0.0788
4,AGTTAACA,0.0755
5,AGGATGAT,0.0844
6,AGTTGATC,0.0777
7,CAGGTGCC,0.0785
8,CCGCGGCG,0.0673
9,GGATATCA,0.082
10,GCAAGGCC,0.0692
11,GGAGGCGA,0.074
12,GGGAGACC,0.0741
13,ATTTTTGC,0.0769
14,GACTACAA,0.0767
15,CAGACCTA,0.0725
16,CACATTTA,0.0961
17,CTAACCAC,0.0817
18,GAACGGAA,0.0709
19,CCTTCTAA,0.078
20,CCGGTGGA,0.0712
21,GTCAAGGA,0.0749
22,ATCAAGCA,0.0748
23,AACTGAGA,0.069
24,CCCTTGTC,0.0759
25,CAATGCTG,0.08

row,Sequence,binding signal (normalized occupancy)
1,AACGTACA,0.0843
2,GCCTCCCC,0.0802
3,ACCGCCTC,0.0707
4,GAGCAGGC,0.079
5,GACTCACA,0.0809
6,ATACTGAC,0.0725
7,AATTCCGC,0.0721
8,TAGGCACA,0.0825
9,AGGTTTAT,0.0803
10,GGCGCCCC,0.0694
11,ATTTTGGG,0.0707
12,GCTGGGCA,0.0677
13,GCGGCCCC,0.0734
14,ACATTATC,0.0876
15,GTGGAAGA,0.0769
16,ACTACGCT,0.0769
17,GACCCGGA,0.0761
18,ACGCAGAT,0.0806
19,CTCTTACC,0.0753
20,ATATATGC,0.0867
21,AGTTCCTG,0.0697
22,ATACTAAA,0.0775
23,CGGTAGGA,0.0713
24,TAATAACA,0.0829
25,CTTGCAAC,0.0721

row,Sequence,binding signal (normalized occupancy)
1,GAATACAC,0.0792
2,CCAGAGTC,0.0651
3,GGGCCTAA,0.0681
4,CATAAGAG,0.0772
5,AGAGTCCC,0.0735
6,ATTACTTG,0.0748
7,AGTGAATG,0.0793
8,AAGGCTCT,0.0712
9,ATCTCATC,0.0887
10,GTCCAGAC,0.0728
11,CCTAACTA,0.0746
12,GTTCAAGA,0.0691
13,ATACGGCA,0.0791
14,CTCCGGCC,0.07
15,AATGAAAG,0.0748
16,CATTATAG,0.0795
17,CGCGGAGC,0.066
18,AGGCATGC,0.1
19,CCAATCCG,0.0684
20,CATTCTCG,0.0775
21,GTCTCTAA,0.0742
22,CAGTAATG,0.0747
23,TCCCCACA,0.0842
24,ATTAACGA,0.0815
25,ATGTATCA,0.0901

row,Sequence,binding signal (normalized occupancy)
1,ATCCCGAT,0.0787
2,CTCGCTCC,0.0678
3,TGGCATAA,0.0826
4,ACCGGGCG,0.0674
5,CTCTCTGA,0.0677
6,AATTCCGG,0.0686
7,ACTTTATG,0.0826
8,TCCACGGA,0.0739
9,CAACCTGA,0.0793
10,ACCTTCAG,0.0702
11,GTACACTA,0.0755
12,GCGATCAC,0.082
13,CCCCTAAG,0.0697
14,CCCAGAAG,0.0682
15,GGTGAAAC,0.0719
16,AGTAAAAT,0.0728
17,ATGACTAA,0.0795
18,TCGATCCA,0.0741
19,ACCCCAGA,0.0752
20,GAATGCCC,0.0765
21,CTGAAGTC,0.071
22,ACAGAAGA,0.0734
23,CACATTAC,0.0933
24,CATTTAAG,0.0762
25,GATCCCCC,0.0883

row,Sequence,binding signal (normalized occupancy)
1,GCATCCGA,0.0761
2,GTGTTACA,0.089
3,GCTACATA,0.0798
4,CCAATAAA,0.0849
5,AACGTCTA,0.0689
6,CACTGAGA,0.0713
7,ACGCCCGA,0.0838
8,CTCCTGAA,0.0694
9,GGAGAGCA,0.0742
10,AATTTAAA,0.0691
11,ACCTAGTC,0.0711
12,ACGTCCAT,0.081
13,ACTTGCCA,0.0715
14,GGATGCAC,0.0851
15,ATGGCGCG,0.0814
16,GATTGTAA,0.0753
17,ACATATCC,0.0835
18,ATCCTTAC,0.0772
19,ACCACACA,0.085
20,GCCCGGCC,0.0649
21,CATGGTCG,0.0925
22,GGACCCCA,0.0794
23,GATTATAC,0.0735
24,GCCACAAA,0.0733
25,ATTCTGAA,0.0729

row,Sequence,binding signal (normalized occupancy)
1,GATCAACC,0.0735
2,AACGACAG,0.075
3,GGTTCTAC,0.0735
4,CTCAAGGC,0.0765
5,GAGTCCTA,0.0711
6,ACTTCTCG,0.0732
7,GTACGGTA,0.0741
8,TAATTACA,0.0778
9,AGGGCGAC,0.0699
10,CGCGCTTC,0.0753
11,ATAGTGAG,0.0765
12,ATACACGG,0.0846
13,ACTCTCCA,0.0749
14,GGGACAAA,0.0757
15,CTCTCACA,0.0808
16,AGACGGAT,0.0765
17,CGGTGATC,0.0719
18,GCTCCAGA,0.0689
19,GTGTTCTA,0.0812
20,CGGGACTA,0.0695
21,ACCCACAC,0.0847
22,AACTAATG,0.0755
23,AGGGGACA,0.0728
24,CTTCCGCC,0.0655
25,GCGATGTA,0.0777

row,Sequence,binding signal (normalized occupancy)
1,ACGACTGC,0.0679
2,TAGAAGAA,0.0722
3,AGGCTTGG,0.0699
4,CGGTAGTA,0.0771
5,ACTCGCCC,0.0699
6,CATCCCAG,0.0743
7,CAAAAGTG,0.0729
8,AATAAAGT,0.0743
9,TAACTATA,0.0828
10,CTCCGGCA,0.073
11,ATCCGTCA,0.0707
12,ACCGTTGC,0.0705
13,CACACACG,0.0916
14,CCTTCACC,0.0727
15,GCAGCTCA,0.0711
16,ACATATCA,0.0892
17,CAAAGTCG,0.0646
18,CCTGCTCG,0.0686
19,GACACCAC,0.0761
20,CGTAAATA,0.0761
21,ACTTTGAT,0.0759
22,ATAAAGTG,0.082
23,AGTACAGA,0.0762
24,TAGATTAA,0.0757
25,AGAGGGGA,0.0758

row,Sequence,binding signal (normalized occupancy)
1,AGAGAGTC,0.0761
2,CTAGCTAG,0.0669
3,ACTTGATG,0.0771
4,AGCGGGGG,0.0731
5,AGAAGATG,0.0765
6,TGGAACCA,0.0731
7,ACAAGAAA,0.073
8,GGTCTGAC,0.0718
9,GAAACATC,0.0805
10,AGGTCCGA,0.0717
11,AAGGACGA,0.0678
12,ACAGTGAT,0.075
13,AATGATGC,0.0792
14,AGCACCCC,0.0764
15,GACACCTA,0.0747
16,AGACTACC,0.0685
17,GGCAGCGA,0.0701
18,AATAGGAC,0.0851
19,CAGCACTC,0.072
